Hit rate of the full screen: of about 410,000 compounds, about 6,400 (1.6%) were called active. This list was built around the results that the source calls inconclusive (neither active nor inactive); the mix of calls is not that of the screen. Calls follow the shape of the dose curve; as a rule, active = well fitted inhibition curve with a large enough effect; inconclusive = small, poorly fitted or top-dose-only effect; inactive = no such curve, though single readings can be large or run the other way. Potencies of inconclusive entries are left out as doubtful fits.
What follows are compounds tested against Glucagon-like peptide 1 receptor (Homo sapiens) (UniProt P43220) (assay: qHTS of GLP-1 Receptor Inverse Agonists (Inhibition Mode)). Details: HEK293 GLP-1R CRE-luciferase, luminescence, 24 h, GLP-1R form is constitutively active; series mostly up to 38.3 µM.
UniProt P43220, sequence (P43220 whole entry, looked up): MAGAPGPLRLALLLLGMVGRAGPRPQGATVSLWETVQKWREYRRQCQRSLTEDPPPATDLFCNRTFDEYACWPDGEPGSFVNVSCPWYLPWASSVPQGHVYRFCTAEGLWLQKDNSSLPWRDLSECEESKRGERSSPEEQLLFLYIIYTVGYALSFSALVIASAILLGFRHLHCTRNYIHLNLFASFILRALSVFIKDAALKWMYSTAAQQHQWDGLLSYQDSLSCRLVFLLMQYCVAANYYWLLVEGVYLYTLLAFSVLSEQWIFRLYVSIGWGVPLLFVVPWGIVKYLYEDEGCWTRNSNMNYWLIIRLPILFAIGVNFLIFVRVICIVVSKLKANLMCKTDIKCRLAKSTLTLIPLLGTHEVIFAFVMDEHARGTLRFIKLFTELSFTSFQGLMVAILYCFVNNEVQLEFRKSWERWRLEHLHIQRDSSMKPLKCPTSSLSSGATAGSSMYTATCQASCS
How it was run: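 Cells are plated, allowed 12 hours at 37 deg C, then treated with compounds for 24 hr before luciferase detection reagent is added and luminescence is read after 12 min at room temperature. The HEK293 line carries constitutively active GLP-1R with a cAMP-responsive reporter.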
For O=C(CCNC(=O)c1ccccc1Cl)Nc1nc(-c2ccccc2Cl)cs1, the Potency was active: 7.94 µM.
In the case of CC(C)(C)NCCOc1ccc2ccccc2c1, the Potency was inconclusive [inhibitor, partial curve, poor fit].
In the case of CC1=CC(C)(C)NC(=S)N1c1cc(C)cc(C)c1, the Potency was inconclusive [inhibitor, partial curve, poor fit].
For CCCCCn1c(CN2CCN(c3ccc(OC)cc3)CC2)nc2c1c(=O)[nH]c(=O)n2C, the Potency was “inactive”.
Cc1ccc(-n2nc(C(=O)c3ccccc3)n3c(=O)c(Cc4ccccc4)nnc23)cc1 was tested, and the Potency was inconclusive [inhibitor, single point].
For CCC(Cc1ccccc1)NC(=O)CSc1ccsc1[N+](=O)[O-] (stereo not drawn), the Potency was inconclusive [inhibitor, single point].
CN(C)CCNC(=S)Nc1ccc(-c2nc3ccccc3[nH]2)cc1 was tested, and the Potency was inconclusive [inhibitor, partial curve].
With COc1ccccc1NC(=O)CN(c1ccccc1)S(=O)(=O)c1ccccc1 the Potency was inconclusive [inhibitor, single point].
With COC(=O)c1cccc(OCCCN2CCC(C(O)(c3ccccc3)c3ccccc3)CC2)c1 the Potency was inconclusive [inhibitor, partial curve, poor fit].
In the case of CC1C(=O)N(Cc2cn(Cc3ccco3)nn2)CCS(=O)(=O)N1Cc1ccc(-c2ccccc2C(F)(F)F)cc1 (stereo not drawn), the Potency was inconclusive [inhibitor, single point].
For COc1ccccc1NC(=S)NCc1ccc(Cl)cc1, the Potency was inconclusive [inhibitor, single point].
For Cc1ccccc1-n1c(-c2ccco2)n[nH]c1=S, the Potency was “inactive”.
With COC(=O)c1[nH]c2ccc(Cl)cc2c1NC(=O)CN1CCC(C(N)=O)CC1 the Potency was “inactive”.
In the case of CCn1c(CCCc2ccc(OC)c(C)c2)n[nH]c1=S, the Potency was inconclusive [inhibitor, single point].
For CCCN1CCN(CCCNC(=O)CN2C(=O)C(CC)Oc3ccccc32)CC1 (stereo not drawn), the Potency was “inactive”.
In the case of CC(C)c1ccccc1NC(=O)c1cccc(NC(=O)c2ccccc2)c1, the Potency was active: 10 µM.
NC(N)=NC(N)=Nc1ccc2ccccc2c1 was tested, and the Potency was inconclusive [inhibitor, single point].
With O=C(O)c1cccc(-c2ccc(/C=N/Nc3ccc([N+](=O)[O-])cc3)o2)c1 the Potency was inconclusive [inhibitor, single point].
For Cc1cccc(N(CC(O)CON=C2c3ccccc3-c3ccccc32)S(C)(=O)=O)c1 (stereo not drawn), the Potency was inconclusive [inhibitor, partial curve, poor fit].
In the case of COc1cc(C)c(S(=O)(=O)N2CCCC2)cc1C(C)C, the Potency was inconclusive [inhibitor, single point].
With COc1ccc([C@H]2CC(=O)C=C(c3ccc(C)c4ccccc34)C2)cc1 the Potency was inconclusive [inhibitor, partial curve, poor fit].
For COc1ccccc1-c1sc2ccccc2c1-c1ccc(OCCN2CCOCC2)cc1, the Potency was inconclusive [inhibitor, single point].
With CCNC(=S)N/N=C/c1c(C)nn(-c2cccc(Cl)c2)c1Cl the Potency was inconclusive [inhibitor, partial curve].
In the case of O=S(=O)(c1ccc2c(c1)OCCO2)N1CCC(O)(c2ccc(Cl)cc2)CC1, the Potency was inconclusive [inhibitor, single point].
For COc1ccc(CNCc2ccc3ccccc3c2)c(OC)c1, the Potency was inconclusive [inhibitor, partial curve].
In the case of CCOC(=O)C1=CN(Cc2cccc(F)c2)S(=O)(=O)N(CC)C1c1ccc(Br)cc1F (stereo not drawn), the Potency was inconclusive [inhibitor, single point].
CCOC(=O)CSc1nc(C2CC2)cc(-c2ccc(Cl)cc2)c1C#N was tested, and the Potency was inconclusive [inhibitor, partial curve, poor fit].
For CCOC1=C2[C@@H](CN(S(=O)(=O)c3ccc(C)cc3)[C@H]2c2ccccc2Cl)[C@H]2C(=O)N(C)C(=O)[C@H]2C1, the Potency was “inactive”.
In the case of Cc1nn(C)c(C)c1Sc1ccc(Br)cc1, the Potency was inconclusive [inhibitor, partial curve, poor fit].
In the case of OC(c1ccccc1)c1nc(-c2csc3ccccc23)cs1 (stereo not drawn), the Potency was inconclusive [inhibitor, single point].
With O=C(Nc1cccc(C(F)(F)F)c1)c1cccnc1N1CCN(c2ccccc2)CC1 the Potency was inconclusive [inhibitor, single point].
COc1ccc(OC)c(C2=NS(=O)(=O)N(C)C(C(=O)Nc3ccc(F)cc3F)=C2)c1 was tested, and the Potency was inconclusive [inhibitor, partial curve, poor fit].
In the case of Cc1nc(-c2cccc(-c3noc(C)n3)c2)no1, the Potency was “inactive”.
COc1ccc(Br)c(C(=O)OCC(=O)N2CCC(Cc3ccccc3)CC2)c1 was tested, and the Potency was inconclusive [inhibitor, partial curve, poor fit].
CC(C)c1ccc(/C=C/C(=O)NC(=S)Nc2ccc(CN3CCOCC3)cc2)cc1 was tested, and the Potency was inconclusive [inhibitor, single point].
With CC(C)CN(C)Cc1c(C(=O)N2CCc3ccccc3C2)nc2ccc(Cl)cn12 the Potency was inconclusive [inhibitor, partial curve, poor fit].
With Cc1ccc(-n2c(=S)[nH]c3nc4c(cc3c2=O)COC(C)(C)C4)cc1 the Potency was “inactive”.
In the case of Cc1ccc(S(=O)(=O)N2CCC(=O)N([C@H](COCc3cccc(Cl)c3)Cc3ccccc3)CC2)cc1, the Potency was inconclusive [inhibitor, partial curve].
For CCc1ccc(CCC(=O)Nc2sc(C)c(C)c2C(=O)OC)o1, the Potency was inconclusive [inhibitor, single point].
In the case of COC(=O)C1(Cc2cc(-c3ccccc3)no2)CCN(C(=O)OC(C)(C)C)CC1, the Potency was inconclusive [inhibitor, single point].
With COCC(=O)N/N=C\c1ccc(OC/C=C/c2ccccc2)c(OC)c1 the Potency was inconclusive [inhibitor, partial curve, poor fit].
CC(C)(C)[C@H]1CCC(=O)N([C@H](CSc2ccccc2)Cc2ccccc2)CC1 was tested, and the Potency was inconclusive [inhibitor, partial curve].
CCOC(=O)C1(CC2CCCCO2)CCN(Cc2cc(F)ccc2-n2cccn2)CC1 (stereo not drawn) was tested, and the Potency was inconclusive [inhibitor, single point].
COC(=O)CCCC1=CC2=C(c3ccccc3)C(=O)C(C)(OC(=O)C3CCCC3)C(=O)C2=CN1C1CCCCC1 (stereo not drawn) was tested, and the Potency was inconclusive [inhibitor, single point].
In the case of CCN1C(=O)/C(=C\c2nc3ccccc3c(=O)n2CC)c2ccccc21, the Potency was inconclusive [inhibitor, partial curve, poor fit].
In the case of COc1cccc(NC(=O)CSc2nc(-c3ccccc3Cl)nc3c2Cc2c(CO)cnc(C)c2O3)c1, the Potency was “inactive”.
With S=C(Nc1ccc2c(c1)OCO2)Nc1ccccc1Cl the Potency was “inactive”.
For Cc1cccc(NC(=O)c2sc3nc4c(c(-c5ccco5)c3c2N)CCC4)c1, the Potency was inconclusive [inhibitor, partial curve, poor fit].
In the case of CCCN1C(=O)c2ccccc2NC1c1ccc(Cl)c(Cl)c1 (stereo not drawn), the Potency was active: 11.2 µM.
With CC(c1ccco1)N(C(=O)CSc1ccc(Br)cc1)c1ccccn1 (stereo not drawn) the Potency was inconclusive [inhibitor, partial curve, poor fit].
With COc1ccc(C)cc1N1CC(C(=O)Nc2ccccc2N2CCCCC2)CC1=O (stereo not drawn) the Potency was inconclusive [inhibitor, single point].
In the case of Cc1c(C(=O)NCc2ccc(C(F)(F)F)cc2)sc(=O)n1Cc1ccc(S(=O)(=O)N(C)C)cc1, the Potency was inconclusive [inhibitor, single point].
In the case of Cc1ccc(C)c(S(=O)(=O)NC(C)CCc2ccccc2)c1 (stereo not drawn), the Potency was inconclusive [inhibitor, partial curve, poor fit].
In the case of Cc1cc(C)cc(Oc2ccc(S(=O)(=O)N3CCN(C)CC3)cn2)c1, the Potency was inconclusive [inhibitor, single point].
With CCCn1c(=O)c2sccc2n2c(CCCC(=O)NCc3ccccc3)nnc12 the Potency was “inactive”.
With C[C@H](NC(=O)c1[nH]cnc1C(=O)Nc1ccc(CNC(=O)OC(C)(C)C)cc1)C(=O)OCc1ccccc1 the Potency was inconclusive [inhibitor, single point].
For CC1(C)CC(=O)C2=C(C1)NC1=C(C(=O)c3ccccc31)C2c1ccc(Cl)cc1 (stereo not drawn), the Potency was inconclusive [inhibitor, partial curve, poor fit].
With CCN(CC)C(=O)C1CCCN(Cc2cccc(Cl)c2)C1 (stereo not drawn) the Potency was “inactive”.
For CC1(C(=O)NCc2ccccc2)CN(S(C)(=O)=O)CC(=O)N1Cc1cccc(C(F)(F)F)c1 (stereo not drawn), the Potency was “inactive”.
With O=[N+]([O-])c1ccc(O)c(/C=N/n2c(CO)nc3ccccc32)c1 the Potency was “inactive”.
With O=C(CCCSc1ccc(Cl)cc1)Nc1cc(S(=O)(=O)N2CCOCC2)ccc1O the Potency was inconclusive [inhibitor, partial curve, poor fit].
Cc1cccc(C(=O)OC(C)C(=O)N2CCN(Cc3ccccc3)CC2)c1 (stereo not drawn) was tested, and the Potency was inconclusive [inhibitor, single point].
With CC(O)(c1cccc(F)c1)c1nc(-c2cnc3ccccc3c2)cs1 (stereo not drawn) the Potency was inconclusive [inhibitor, single point].

Reference: PubChem BioAssay AID624417 (National Center for Advancing Translational Sciences (NCATS), 2012)
Also: nearly all actives have a fitted effect of over 55% in size.
Potency is read from the fitted curve at half-maximal effect; tags tell the direction and shape of the fitted curve.
